# From the supplement of paper PMC12645437, “Orthogonal IMiD-Degron Pairs Induce Selective Protein Degradation in Cells” (ACS Chemical Biology, 2025)
# This is one part of the list.
# B1: Q9UKT9 (peptide)
# chain: FECEVCGAQFTQKGNLLRHIKL
# B2: Q9UKT9 (peptide)
# chain: FECPVCGAIFTQKGNLLRHIKL
# B3: Q9UKT9 (peptide)
# chain: FICDVCGAIFTQKGNLLRHIKL
# B4: Q9UKT9 (peptide)
# chain: FTCDQCGASFTQKGNLLRHIKL
# B5: Q9UKT9 (peptide)
# chain: FWCPICGATFTQKGNLLRHIKL
# B6: Q9UKT9 (peptide)
# chain: FLCPQCGAQFTQKGNLLRHIKL
# B7: Q9UKT9 (peptide)
# chain: FWCEQCGAHFTQKGNLLRHIKL
# B8: Q9UKT9 (peptide)
# chain: FNCNQCGAHFTQKGNLLRHIKL
# B9: Q9UKT9 (peptide)
# chain: LYCEICGFVCTQKGNLLRHIKL
# B10: Q9UKT9 (peptide)
# chain: FSCDICGAFFTQKGNLLRHIKL
# B11: Q9UKT9 (peptide)
# chain: FQCPICGRLFTQKGNLLRHIKL
# B12: Q9UKT9 (peptide)
# chain: FECEICGRAFTQKGNLLRHIKL
# B13: Q9UKT9 (peptide)
# chain: FVCNQCGRFFTQKGNLLRHIKL
# B14: Q9UKT9 (peptide)
# chain: FKCSVCGHKFTQKGNLLRHIKL
# B15: Q9UKT9 (peptide)
# chain: FACSVCGHDFTQKGNLLRHIKL
# B16: Q9UKT9 (peptide)
# chain: FGCPICGHCFTQKGNLLRHIKL
# B17: Q9UKT9 (peptide)
# chain: FVCDVCGATFTQKGNLLRHIKL
# B18: Q9UKT9 (peptide)
# chain: LHCPICGFECTQKGNLLRHIKL
# B19: Q9UKT9 (peptide)
# chain: FHCNQCGHIFTQKGNLLRHIKL
# B20: Q9UKT9 (peptide)
# chain: FVCDVCGAKFTQKGNLLRHIKL
# B21: Q9UKT9 (peptide)
# chain: FICEQCGACFTQKGNLLRHIKL
# B22: Q9UKT9 (peptide)
# chain: FACNQCGHKFTQKGNLLRHIKL
# B23: Q9UKT9 (peptide)
# chain: FGCNQCGALFTQKGNLLRHIKL
# B24: Q9UKT9 (peptide)
# chain: FKCPICGHGFTQKGNLLRHIKL
# B25: Q9UKT9 (peptide)
# chain: FVCPICGRQFTQKGNLLRHIKL
# B26: Q9UKT9 (peptide)
# chain: LVCEICGFKCTQKGNLLRHIKL
# B27: Q9UKT9 (peptide)
# chain: FSCEQCGATFTQKGNLLRHIKL
# B28: Q9UKT9 (peptide)
# chain: FSCPICGRPFTQKGNLLRHIKL
# B29: Q9UKT9 (peptide)
# chain: FTCEVCGASFTQKGNLLRHIKL
# B30: Q9UKT9 (peptide)
# chain: FVCPQCGADFTQKGNLLRHIKL
# B31: Q9UKT9 (peptide)
# chain: FHCPQCGAEFTQKGNLLRHIKL
# B32: Q9UKT9 (peptide)
# chain: FGCNVCGADFTQKGNLLRHIKL
# B33: Q9UKT9 (peptide)
# chain: FYCDVCGATFTQKGNLLRHIKL
# B34: Q9UKT9 (peptide)
# chain: LFCPICGFPCTQKGNLLRHIKL
# B35: Q9UKT9 (peptide)
# chain: LACEICGFQCTQKGNLLRHIKL
# B36: Q9UKT9 (peptide)
# chain: FCCEICGHFFTQKGNLLRHIKL
# B37: Q9UKT9 (peptide)
# chain: FLCEQCGAIFTQKGNLLRHIKL
# B38: Q9UKT9 (peptide)
# chain: FACDVCGAAFTQKGNLLRHIKL
# B39: Q9UKT9 (peptide)
# chain: LHCPICGFFCTQKGNLLRHIKL
# B40: Q9UKT9 (peptide)
# chain: FNCNVCGALFTQKGNLLRHIKL
# B41: Q9UKT9 (peptide)
# chain: FYCPVCGANFTQKGNLLRHIKL
# B42: Q9UKT9 (peptide)
# chain: FDCNVCGAPFTQKGNLLRHIKL
# B43: Q9UKT9 (peptide)
# chain: FWCDQCGAVFTQKGNLLRHIKL
# B44: Q9UKT9 (peptide)
# chain: FICEICGHDFTQKGNLLRHIKL
# B45: Q9UKT9 (peptide)
# chain: FICEICGAIFTQKGNLLRHIKL
# B46: Q9UKT9 (peptide)
# chain: FTCNVCGANFTQKGNLLRHIKL
# B47: Q9UKT9 (peptide)
# chain: LWCPICGFRCTQKGNLLRHIKL
# B48: Q9UKT9 (peptide)
# chain: FCCPICGHCFTQKGNLLRHIKL
# B49: Q9UKT9 (peptide)
# chain: LICPICGFCCTQKGNLLRHIKL
# B50: Q9UKT9 (peptide)
# chain: FRCEQCGACFTQKGNLLRHIKL
# Target: no compound (DMSO)
# Experiment: log2 fold change of degron read counts, EGFP-low vs EGFP+ sorted cells; higher = lower degron-EGFP level without compound (poor expression or instability)
# Details: compound: DMSO control; 18 h
# 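Further: jurkat cells carrying a lentiviral library of mutant zinc finger degrons fused to EGFP plus mCherry, mCherry+ cells FACS sorted, degron abundance counted by next-generation sequencing.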
row,Sequence,log2 fold change of degron read counts
1,B1,-1.47
2,B2,-0.189
3,B3,-1.37
4,B4,-1.93
5,B5,0.142
6,B6,-1.01
7,B7,-0.893
8,B8,-0.233
9,B9,0.553
10,B10,-0.167
11,B11,0.802
12,B12,-2.67
13,B13,0.565
14,B14,-0.831
15,B15,-0.939
16,B16,-0.132
17,B17,-2.95
18,B18,0.0807
19,B19,0.417
20,B20,-2.64
21,B21,-1.25
22,B22,0.859
23,B23,0.512
24,B24,-0.385
25,B25,-0.279

row,Sequence,log2 fold change of degron read counts
1,B26,-1.25
2,B27,-2.19
3,B28,0.317
4,B29,-1.92
5,B30,-2.32
6,B31,-1.47
7,B32,0.0861
8,B33,-1.02
9,B34,1.92
10,B35,-0.796
11,B36,0.0786
12,B37,-1.29
13,B38,-1.84
14,B39,1.82
15,B40,-0.104
16,B41,-0.222
17,B42,-0.129
18,B43,0.354
19,B44,-2.06
20,B45,-0.36
21,B46,-1.55
22,B47,2.4
23,B48,0.138
24,B49,1.27
25,B50,-1.46
